Reference: article PMC10552892, “Ebselen oxide and derivatives are new allosteric HER2 inhibitors for HER2‐positive cancers” (Molecular Oncology, 2023)

How the values were obtained:
V842I HER2 = V842I HER2 (Homo sapiens, UniProt P04626, V842I); experiment: Activation of gD-tagged V842I HER2 in HBMECs, western blot; conditions: 5–10 μM, 24 h, one range printed for V777L and V842I
[1] = system: HBMECs overexpressing V777L HER2; experiment: Proliferation of HBMECs overexpressing V777L HER2 (Incucyte, MTT)

O=C1c2ccccc2[Se](=O)N1c1ccccc1 (stereo not drawn) [Ebselen oxide, ebselen oxide]
Inhibition of V842I HER2 activation (V842I HER2): 34–49%
Inhibition of cell proliferation induced by overexpression of V777L HER2 ([1]; 5 μM, Incucyte 5 days): almost totally inhibited
Inhibition of proliferation compared with AG1478 (5 μM) ([1]; MTT 3 days, V777L): better
